Experiment [1] deals with T1, human GITR expressed on cells (UniProt Q9Y5U5 26-241).
T1 chain: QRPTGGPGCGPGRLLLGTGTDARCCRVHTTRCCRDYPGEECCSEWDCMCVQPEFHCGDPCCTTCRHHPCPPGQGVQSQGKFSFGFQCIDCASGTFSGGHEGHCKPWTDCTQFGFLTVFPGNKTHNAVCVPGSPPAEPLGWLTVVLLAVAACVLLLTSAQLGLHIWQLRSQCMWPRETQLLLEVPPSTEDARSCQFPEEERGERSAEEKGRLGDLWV
Briefly: FACS, inhibition of ABP1-Dylight650 staining on CD4+ T cells; Donor 1. In general terms: In flow cytometry, cells or beads pass a laser one at a time.

In experiment [2] the target is T1, human GITR expressed on cells. In words: FACS, inhibition of ABP1-Dylight650 staining on CD8+ T cells; Donor 2.
The target is the same in experiment [3]. In words: FACS, inhibition of ABP1-Dylight650 staining on CD8+ T cells; Donor 1.
The target is the same in experiment [4]. Briefly: FACS, inhibition of ABP1-Dylight650 staining on CD4+ T cells; Donor 2.

B1: ABP1 (antibody)
heavy: QVQLQESGPGLVKPSETLSLTCAVSGYSISSGLGWGWIRQPPGKGLEWIGGIYESGSTYYNPSLKSRVTISVDTSKNQFSLKLSSVTAADTAVYYCAHERVRGYGDYGGHHAFDIWGQGTMVTVSSASTKGPSVFPLAPSSKSTSGGTAALGCLVKDYFPEPVTVSWNSGALTSGVHTFPAVLQSSGLYSLSSVVTVPSSSLGTQTYICNVNHKPSNTKVDKRVEPKSCGGGGSQVQLQESGPGLVKPSETLSLTCAVSGYSISSGLGWGWIRQPPGKGLEWIGGIYESGSTYYNPSLKSRVTISVDTSKNQFSLKLSSVTAADTAVYYCAHERVRGYGDYGGHHAFDIWGQGTMVTVSSASTKGPSVFPLAPCSRSTSESTAALGCLVKDYFPEPVTVSWNSGALTSGVHTFPAVLQSSGLYSLSSVVTVPSSSLGTKTYTCNVDHKPSNTKVDKRV[human IgG4 Fc with S228P (EU numbers) left out]
light: [about 100 residues left out][about 120 residues left out]
What is called EC50 is the midpoint of the concentration-response curve. As to B1, the EC50 in experiment [1] amounted to 0.0512 nM; in experiment [2], 0.0136 nM; in experiment [3], 0.0528 nM; in experiment [4], 0.0355 nM.

(Values after patent US20210269542A1 (published 2021).)
